In PubChem BioAssay AID540317 (National Center for Advancing Translational Sciences (NCATS), 2011):
“And” between values parts separate entries of the source, which are not always exact repeats. Identical values can stand only once. The campaign covered roughly 390,000 compounds. About 2,200 (0.56%) were called active. Inconclusive means that the source gave no clear call. Such entries were picked first, then a sample of the others. The call rests on the fitted dose curve; in most records, active means well fitted inhibition curve with a large enough effect; inconclusive means small, poorly fitted or top-dose-only effect; inactive means no such curve, though single readings can be large or run the other way. Potencies beside an inconclusive call are fits to weak or partial responses and may not hold up.

Molecular target: Chromobox protein homolog 1 (Homo sapiens) (UniProt P83916)
Chain of UniProt P83916 (P83916 whole entry, looked up): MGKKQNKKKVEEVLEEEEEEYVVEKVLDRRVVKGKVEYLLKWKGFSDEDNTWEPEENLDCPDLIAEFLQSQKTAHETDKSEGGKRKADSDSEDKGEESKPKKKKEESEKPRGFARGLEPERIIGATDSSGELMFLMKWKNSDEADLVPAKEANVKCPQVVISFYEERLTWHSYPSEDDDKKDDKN
Assay: HTS for Inhibitors of HP1-beta Chromodomain Interactions with Methylated Histone Tails; further: nearly all actives have a fitted effect of over 70% in size
Conditions: AlphaScreen HP1-beta / biotin-H3K9me3 peptide binding; series mostly up to 114 µM
How it was run: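 Compound inhibition of the preformed complex between 50 nM HP1-beta and 50 nM biotinylated H3K9me3 peptide was read by AlphaScreen. Buffer was PBS pH 7.4 with 0.01% Tween-20. Incubations ran 30 min at room temperature, with 10 ug/mL donor/acceptor beads.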
Potency means the concentration at half of the fitted maximal effect; tags describe the fitted curve by direction and shape.

Row | Compound | Potency
1 | CC(CC(=O)Nc1ccccc1)NCCCN1CCCC1=O (centres undefined) | active: 79.4 µM
2 | COc1ccc(Nc2c(-c3ccco3)nc3cccc(C)n23)cc1 | inconclusive: 44.7 µM [inhibitor, partial curve] and inconclusive: 39.8 µM [inhibitor, partial curve, poor fit]
3 | O=C(COC(=O)c1ccc(F)cc1Cl)NCc1ccco1 | inconclusive: 50.1 µM [inhibitor, partial curve]
4 | Cn1cnnc1SCC(=O)Nc1ncc([N+](=O)[O-])s1 | inconclusive: 56.2 µM [inhibitor, partial curve, poor fit]
5 | Oc1c(C(c2ccccn2)N2CCCCC2)cc(Cl)c2cccnc12 (centres undefined) | inconclusive: 44.7 µM [inhibitor, partial curve]
6 | O=C(NCC(=O)N(c1ccc2c(c1)OCO2)C(C(=O)NC1CCCC1)c1ccncc1)c1ccco1 (centres undefined) | inconclusive: 8.91 µM [inhibitor, full curve, poor fit]
7 | COc1cc(OC)c(OC)cc1CN(C)C(c1ccccc1)c1nnnn1-c1ccccc1C (centres undefined) | inconclusive: 25.1 µM [inhibitor, partial curve]
8 | COc1ccc(/C=C/C(=O)c2c(O)cc(C)oc2=O)c(OC)c1 | inactive
9 | Cc1c(C(=O)OC2CCCCC2)[nH]c2c1C(=O)CC(c1ccccc1)C2 (centres undefined) | inactive
10 | CCC(C)NC(=O)CSc1nc2c(sc3ccccc32)c(=O)n1CCc1ccccc1 (centres undefined) | inactive
11 | COc1cccc(-c2nc(N3CCCCC3)c3ccccc3n2)c1O | inconclusive: 20 µM [inhibitor, full curve]
12 | COc1ccccc1NS(=O)(=O)c1cccc(C(=O)N/N=C/c2ccccc2OCC(=O)O)c1 | inactive
13 | O=C(NCCCN1CCOCC1)c1ccccc1NS(=O)(=O)c1cc([N+](=O)[O-])ccc1Cl | inactive
14 | CCCCC1=CC2=C(c3ccco3)C(=O)C(C)(OC(=O)c3ccc(OC)cc3)C(=O)C2=CN1CCCOC(C)C (centres undefined) | inconclusive: 44.7 µM [inhibitor, partial curve]
15 | CN1CCN(c2ccc(NC(=S)NC(=O)c3cccc4ccccc34)cc2)CC1 | inconclusive: 17.8 µM [inhibitor, full curve]
16 | CCOC(=O)C1=C(C)NC(C)=C(C(=O)OCC)C1c1ccco1 | inactive
17 | COc1ccc(CCNCc2c(-c3ccccc3)n(C)c3ccccc23)cc1 | inconclusive: 35.5 µM [inhibitor, partial curve, poor fit]
18 | Cc1ccccc1-n1cnc2cc(NCc3cccs3)ccc21 | inconclusive: 39.8 µM [inhibitor, partial curve, poor fit]
19 | COc1ccc(OCC(=O)N/N=C/c2cccn2-c2cccc(C(=O)O)c2)cc1 | inconclusive: 70.8 µM [inhibitor, partial curve]
20 | CCOC(=O)C(=O)N1CCN(c2nc(-c3ccc(Cl)cc3)cs2)CC1 | inconclusive: 39.8 µM [inhibitor, partial curve]
21 | O=C(CCC(=O)c1ccc(F)cc1)OCc1nnc(-c2ccc([N+](=O)[O-])cc2)o1 | inactive
22 | C[C@H](O)[C@@H]1C(=O)N2CCc3ccc(-c4ccccc4)cc3[C@@H]2C[C@@H]1N(C)C(=O)NC1CCCCC1 | inactive

Row | Compound | Potency
23 | CCn1c(C)c(/C=N/Nc2nc3ccccc3s2)c2ccccc21 | inconclusive: 15.8 µM [inhibitor, full curve, poor fit]
24 | COc1ccc(N=c2ssnc2Cl)cc1 | inconclusive: 3.55 µM [inhibitor, partial curve, poor fit]
25 | COc1ccc(NC(=O)COC(=O)c2ccco2)c([N+](=O)[O-])c1 | inconclusive: 50.1 µM [inhibitor, partial curve]
26 | COC(=O)c1cccc(-n2sc3ccccc3c2=O)c1 | inactive
27 | O=S(=O)(c1ccc(F)cc1)N1CCC(N2CCCCCC2)CC1 | inconclusive: 50.1 µM [inhibitor, partial curve]
28 | CN1CCN(Cc2coc3c(Cl)cc(Cl)cc3c2=O)CC1 | inconclusive: 15.8 µM [inhibitor, partial curve, poor fit]
29 | O=C(NCCCN1CCCC1=O)c1c(O)nc2ccccn2c1=O | inactive
30 | O=C(CSc1nnc2ccccn12)NC(=O)c1ccccc1Cl | inconclusive: 79.4 µM [inhibitor, single point]
31 | COc1ccc2c(c1OC)C(=O)N(c1ccc(O)cc1)C2=O | inactive
32 | NS(=O)(=O)c1ccc(CCNC(=O)c2ccc[nH]c2=S)cc1 | inconclusive: 50.1 µM [inhibitor, partial curve]
33 | O=S(=O)(c1cc(O)ccc1O)c1cccc2c(S(=O)(=O)c3cc(O)ccc3O)cccc12 | active: 15.8 µM
34 | O=C(O)Cc1ccc(NC(=O)c2ccc3c(c2)C(=O)N(Cc2ccco2)C3=O)cc1 | inactive
35 | CCN1C(=NCCOC)N[C@@H](CCc2ccccc2)[C@H](C(=O)OC)[C@H]1C | inactive
36 | COc1cccc(C(=O)NCCSc2c(-c3ccc(F)cc3)[nH]c3ccccc23)c1OC | inactive
37 | S=C(NCc1ccco1)Nc1ccc(Oc2ccccc2)cc1 | inconclusive: 17.8 µM [inhibitor, full curve]
38 | COc1ccc(N2CCN(C(=O)CCCCCn3c(=O)[nH]c4ccsc4c3=O)CC2)cc1 | inactive
39 | Cc1ccc(NC(=S)N(C)C)cc1C | inactive
40 | CC(=O)Oc1cc(C(=O)OCC(=O)NC23CC4CC(CC(C4)C2)C3)cc(OC(C)=O)c1OC(C)=O | inconclusive: 8.91 µM [inhibitor, full curve]
41 | CCOc1cccc(=O)c2c(C)n(-c3ccc(C(=O)O)cc3)c(C)c12 | inconclusive: 79.4 µM [inhibitor, single point]
42 | CC1=Nc2cc(C(=O)NCCc3ccc(Cl)cc3)ccc2Sc2ccc(C)cc21 | inactive
43 | O=C1C(NS(=O)(=O)c2cccs2)=C(N2CCN(c3ccccc3)CC2)C(=O)c2ccccc21 | inconclusive: 17.8 µM [inhibitor, full curve, poor fit]
44 | CCOc1ccc(-n2c(CCC(=O)O)ccc2-c2ccc(Br)cc2)cc1 | inconclusive: 39.8 µM [inhibitor, partial curve]
